Data as given in the supplement of paper PMC10126150.
Values marked as one replicate rest on one cluster of the flow cell; about a third of the high ones do not repeat.

system: ATP; test: switch fluorescence ratio, 500 uM ATP over buffer (Cy3 cluster intensity, sum of 5 cycles each) (fold (ratio)); higher = stronger signal-on switching upon ATP binding; sequences stand for … in TCGTCGGCAGCGTCAGATGTGTATAAGAGACAGTTTTTTTTTTTTTTTTTTTTTTTTT…TC; conditions: aptamer strand: ATP DNA aptamer (quencher-CACCTGGGGGAGTATTGCGGAGGAAGG + anchor), 100 nM annealed; ATP concentration: 500 uM; one replicate
How it was run: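 Imaging in selection buffer was followed by imaging after 15 min with 500 uM ATP at 22 °C, for Cy3-labelled switching-strand clusters annealed to 100 nM quencher-labelled ATP aptamer on a modified Illumina MiSeq flow-cell. Five of these buffer/ATP cycles ran, separated by NaOH stripping and re-annealing. The fluorescence ratio per cluster is summed target-cycle over summed buffer-cycle Cy3 intensity, averaged per switch-domain sequence; clusters outside 100-1000 RFU were removed.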
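Also: ATP exposure 15 min at 22 °C before imaging.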

Row | Sequence | switch fluorescence ratio
1 | GAGTGATTGA | 1.02
2 | GAGTGATTT | 1.01
3 | GAGTGGCCGT | 1.06
4 | GAGTGGGGG | 0.996
5 | GAGTGGTAT | 1.02
6 | GAGTGTAGGG | 0.992
7 | GAGTGTGCGA | 0.963
8 | GAGTTAGACT | 0.966
9 | GAGTTATTAT | 1.04
10 | GAGTTCTAAG | 0.986
11 | GAGTTCTTCT | 1.02
12 | GAGTTGCAAG | 0.951
13 | GAGTTGCCA | 1.03
14 | GAGTTGGATG | 0.983
15 | GAGTTGTATA | 0.998
16 | GAGTTTCCCA | 0.993
17 | GAGTTTGATG | 1.01
18 | GATAAAAAAG | 0.984
19 | GATAACACGT | 0.981
20 | GATAACATT | 0.998
21 | GATAACTCAG | 0.957
22 | GATAACTGCG | 1.02
23 | GATAAGGGAC | 1.06
24 | GATAATCAAA | 0.982
25 | GATAATGTCT | 0.985

Row | Sequence | switch fluorescence ratio
26 | GATAATGTTA | 1.02
27 | GATACAACTC | 1
28 | GATACAATA | 1.05
29 | GATACAGTGT | 0.991
30 | GATACATAGT | 0.996
31 | GATACATGCG | 1.02
32 | GATACCCCA | 1.09
33 | GATACGGAG | 1.01
34 | GATACGGAGT | 1.04
35 | GATACGGGTC | 0.984
36 | GATACTCAAG | 1.01
37 | GATACTCCAC | 2.05
38 | GATAGACTGG | 1.02
39 | GATAGATCTG | 1.04
40 | GATATCCGG | 1.01
41 | GATATCCTTT | 0.996
42 | GATATCGGGG | 0.999
43 | GATATGCAAA | 0.991
44 | GATATTGCCT | 1.06
45 | GATATTGCGC | 0.99
46 | GATATTTAAT | 0.993
47 | GATATTTACC | 1.07
48 | GATATTTTCC | 1.04
49 | GATCAAGATG | 1.01
50 | GATCAATGGT | 1.06

Row | Sequence | switch fluorescence ratio
51 | GATCACTTC | 1.02
52 | GATCAGGTAC | 1.06
53 | GATCATACCT | 1.29
54 | GATCATTACG | 1.04
55 | GATCCAAAGT | 0.962
56 | GATCCAGGGC | 1.02
57 | GATCCATCGT | 1.03
58 | GATCCATTTC | 0.952
59 | GATCCCATTG | 0.983
60 | GATCCCCCTA | 1.04
61 | GATCCGAGAA | 1
62 | GATCGAGATG | 1.06
63 | GATCGAGTGC | 1.1
64 | GATCGATGTA | 0.941
65 | GATCGCATG | 1.2
66 | GATCGCCTGA | 0.984
67 | GATCGCCTTA | 1.08
68 | GATCGCTGCG | 1.01
69 | GATCGCTTTA | 1.03
70 | GATCGGGCAG | 0.984
71 | GATCGGTATA | 0.982
72 | GATCGTAGGT | 0.99
73 | GATCTAGGGA | 0.988
74 | GATCTCGT | 0.975
75 | GATCTCTCCT | 1.05

Row | Sequence | switch fluorescence ratio
76 | GATCTGACTC | 1.13
77 | GATCTGGAGA | 1.1
78 | GATCTTCAGT | 0.986
79 | GATCTTGTGA | 0.977
80 | GATGAAAGCA | 1.04
81 | GATGACAACG | 0.975
82 | GATGACAGCG | 0.999
83 | GATGACATCA | 0.974
84 | GATGACGGG | 1.03
85 | GATGACGGTA | 1.06
86 | GATGACGTAC | 1.93
87 | GATGACTTGG | 0.998
88 | GATGAGAAAA | 1.08
89 | GATGATAGGG | 1.03
90 | GATGATATGT | 0.983
91 | GATGATCAGC | 0.964
92 | GATGATCGGA | 0.998
93 | GATGCAAGGT | 1.3
94 | GATGCATTT | 0.946
95 | GATGCCCCTT | 1.08
96 | GATGCCCGGT | 1.08
97 | GATGCGTAGA | 1.02
98 | GATGCTCGTA | 0.961
99 | GATGCTCTAA | 1.02
100 | GATGCTGCTG | 1.02
